Patent publication US20250381223A1

Legend:
CD40-Fc (human) [1] = molecular target: CD40-Fc (human) (UniProt P25942); experiment: flow cytometry of T cells co-electroporated with 15 µg diabody mRNA and 0.5 µg 4D5.BBZ mRNA; CD40-Fc + PE-anti-IgG-Fc; E1 without mRNA: 0.27
CD40-Fc (human) [2] = molecular target: CD40-Fc (human) (UniProt P25942); experiment: flow cytometry of T cells co-electroporated with 15 µg diabody mRNA and 2 µg M12 CAR mRNA; CD40-Fc + PE-anti-Fc; E1 without mRNA: 0.56

B1: 1412-4D11 (bispecific antibody, from a related filing)
chain: QVQLVQSGAEVKKPGASVKVSCKASGYTFTSYYIHWVRQAPGQGLEWIGCIYPGNVNTNYNEKFKDRATLTVDTSISTAYMELSRLRSDDTAVYFCTRSHYGLDWNFDVWGQGTTVTVSSVEGGSGGSGGSGGSGGVMD[omitted - about 100 residues]GGGGSQLQLQESGPGLLKPSETLSLTCTVSGGSISSPGYYGGWIRQPPGKGLEWIGSIYKSGSTYHNPSLKSRVTISVDTSKNQFSLKLSSVTAADTAVYYCTRPVVRYFGWFDPWGQGTLVTVSSASGGGGSGGGGSGGGGSAIQLTQSPSSLSASVGDRVTITCRASQGISSALAWYQQKPGKAPKLLIYDASNLESGVPSRFSGSGSGTDFTLTISSLQPEDFATYYCQQFNSYPTFGQGTKVEIKRT
% of cells in the positive gate (CD40-Fc (human) [1]): 99.2
% of cells in the positive gate (CD40-Fc (human) [2]): 98.9
